Data published in patent US8592383B2, “Cycloalkyl-fused tetrahydroquinolines as CRTH2 receptor modulators” (Merck Sharp & Dohme Corp., priority 2011, dated 2013).

Target: T1, hCRTH2 (Homo sapiens, UniProt Q9Y5Y4)
T1 sequence (Q9Y5Y4 1-395): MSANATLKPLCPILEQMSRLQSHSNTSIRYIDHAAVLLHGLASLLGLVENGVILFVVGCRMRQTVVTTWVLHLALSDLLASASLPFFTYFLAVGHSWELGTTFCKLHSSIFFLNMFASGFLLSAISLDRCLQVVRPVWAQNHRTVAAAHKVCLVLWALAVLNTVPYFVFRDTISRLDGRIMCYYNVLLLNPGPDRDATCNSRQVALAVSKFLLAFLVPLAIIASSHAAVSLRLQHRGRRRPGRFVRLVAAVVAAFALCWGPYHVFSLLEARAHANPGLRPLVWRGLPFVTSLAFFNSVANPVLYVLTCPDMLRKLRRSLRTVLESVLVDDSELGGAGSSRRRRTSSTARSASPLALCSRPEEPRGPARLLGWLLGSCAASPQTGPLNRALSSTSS
Test: biochemical
Details: Ki (nM), Table A; Radioligand Binding Assay A, [3H]PGD2, HEK-hCRTH2 membranes

`CCc1ccc(C(=O)N2c3ccccc3C(N(CC)C(=O)CCC(=O)O)C3CCC32)cc1` (single isomer, unassigned) [compound 84, 4-(ethyl(cis, cis-3-(4-ethylbenzoyl)-1,2,2a,3,8,8a-hexahydrocyclobuta[b]quinolin-8-yl)amino)-4-oxobutanoic acid] and `CCN(C(=O)CCC(=O)O)C1c2ccccc2N(C(=O)c2ccc(F)cc2)C2CCCC12` (single isomer, unassigned) [compound 61, 4-[ethyl[cis, cis-4-(4-fluorobenzoyl)-2,3,3a,9,9a-hexahydro-1H-cyclopenta[b]quinolin-9-yl]amino]-4-oxobutanoic acid] fall in the same range of Ki: 5.1 to 20 nM for the first, 5.1 to 20 nM for the second.

First: O=C(O)CCC(=O)N(C1CC1)C1c2cc(F)c(Cl)cc2N(C(=O)OCc2ccccc2)C2CCCC21 (single isomer, unassigned) [compound 118, 4-(phenylmethyl) cis, cis-[(3-carboxy-1-oxopropyl)cyclopropylamino]-6-chloro-7-fluoro-1,2,3,3a,9,9a-hexahydro-4H-cyclopenta[b]quinoline-4-carboxylate]
Second: O=C(O)CCC(=O)N(C1CC1)C1c2ccc(Cl)cc2N(C(=O)OCc2ccccc2)C2CCC21 (single isomer, unassigned) [27D, 3-(phenylmethyl) cis, cis-[(3-carboxy-1-oxopropyl)cyclopropylamino]-5-chloro-2,2a,8,8a-tetrahydrocyclobuta[b]quinoline-3(1H)-carboxylate]
The Ki of the first is lower: 5.1 to 20 nM for the first, 201 to 7500 nM for the second.

`O=C(O)CCC(=O)N(C1CC1)C1c2cc(F)ccc2N(C(=O)c2ccc(OC(F)(F)F)cc2)C2CCC21` (single isomer, unassigned) [27B, 4-[cyclopropyl[cis, cis-6-fluoro-1,2,2a,3,8,8a-hexahydro-3-[4-(trifluoromethoxy)benzoyl]cyclobuta[b]quinolin-8-yl]amino]-4-oxobutanoic acid] and `O=C(O)CCC(=O)N(C1CC1)C1c2ccc(F)cc2N(C(=O)c2ccc(OC(F)(F)F)cc2)C2CCC21` (single isomer, unassigned) [17CE, 4-[cyclopropyl[cis,cis-5-fluoro-1,2,2a,3,8,8a-hexahydro-3-[4-(trifluoromethoxy)benzoyl]cyclobuta[b]quinolin-8-yl]amino]-4-oxobutanoic acid] fall in the same range of Ki: 1 to 5 nM for the first, 1 to 5 nM for the second.

First: Cc1noc(C)c1C(=O)N1c2ccccc2C(N(C(=O)CCC(=O)O)C2CC2)C2CCCC21 (racemic) [17AY, 4-(cyclopropyl(cis,cis-4-(3,5-dimethylisoxazole-4-carbonyl)-2,3,3a,4,9,9a-hexahydro-1H-cyclopenta[b]quinolin-9-yl)amino)-4-oxobutanoic acid]
Second: Cc1ccc(C(=O)N2c3ccccc3C(N(C(=O)CCC(=O)O)C3CC3)C3CCCC32)cc1 (racemic) [17AU, 4-(cyclopropyl(cis,cis-4-(4-methylbenzoyl)-2,3,3a,4,9,9a-hexahydro-1H-cyclopenta[b]quinolin-9-yl)amino)-4-oxobutanoic acid]
The Ki of the first is higher: 20.1 to 200 nM for the first, 5.1 to 20 nM for the second.

`COc1ncc(-c2ccc(C(=O)N3c4ccccc4C(N(C(=O)CCC(=O)O)C4CC4)C4CCCC43)cc2)s1` (racemic) [18R, 4-[cyclopropyl[cis,cis-2,3,3a,4,9,9a-hexahydro-4-[4-(2-methoxy-5-thiazolyl)benzoyl]-1H-cyclopenta[b]quinolin-9-yl]amino]-4-oxobutanoic acid] and `O=C(O)CCC(=O)N(C1CC1)C1c2ccccc2N(C(=O)c2ccc(SC(F)(F)F)cc2)C2CCCC21` (single isomer, unassigned) [compound 63, 4-[cyclopropyl[cis, cis-2,3,3a,4,9,9a-hexahydro-4-[4-[(trifluoromethyl)thio]benzoyl]-1H-cyclopenta[b]quinolin-9-yl]amino]-4-oxobutanoic acid] fall in the same range of Ki: 5.1 to 20 nM for the first, 5.1 to 20 nM for the second.

`O=C(O)CCC(=O)N(C1CC1)C1c2ccc(Cl)cc2N(C(=O)OCc2ccc(F)cc2)C2CCCC21` (single isomer, unassigned) [22T, 4-[(4-fluorophenyl)methyl] cis, cis-[(3-carboxy-1-oxopropyl)cyclopropylamino]-6-chloro-1,2,3,3a,9,9a-hexahydro-4H-cyclopenta[b]quinoline-4-carboxylate] and `O=C(O)CCC(=O)N(C1CC1)C1c2ccc(Cl)cc2N(C(=O)OCc2ccccc2)C2CCC21` (single isomer, unassigned) [27G, 3-(phenylmethyl) cis, cis-[(3-carboxyl-1-oxopropyl)cyclopropylamino]-5-chloro-2,2a,8,8a-tetrahydrocyclobuta[b]quinoline-3(1H)-carboxylate] fall in the same range of Ki: 5.1 to 20 nM for the first, 5.1 to 20 nM for the second.

`O=C(O)CCC(=O)N(C1CC1)C1c2ccc(Cl)cc2N(C(=O)C2CC2c2ccccc2)C2CCCC21` (single isomer, unassigned) [17CX, 4-[[cis,cis-6-chloro-2,3,3a,4,9,9a-hexahydro-4-[(trans-2-phenylcyclopropyl)carbonyl]-1H-cyclopenta[b]quinolin-9-yl]cyclopropylamino]-4-oxobutanoic acid] and `O=C(O)CCC(=O)N(C1CC1)C1c2ccccc2N(C(=O)C2CC2c2ccccc2)C2CCCC21` (racemic) [17BM, 4-[cyclopropyl[cis,cis-2,3,3a,4,9,9a-hexahydro-4-[(trans-2-phenylcyclopropyl)carbonyl]-1H-cyclopenta[b]quinolin-9-yl]amino]-4-oxobutanoic acid] fall in the same range of Ki: 1 to 5 nM for the first, 1 to 5 nM for the second.

`O=C(O)CCC(=O)N(CC1CC1)C1c2ccccc2N(C(=O)OCc2ccccc2)C2CCCC12` (racemic) [17K, 4-(phenylmethyl) cis,cis-9-[(3-carboxy-1-oxopropyl)(cyclopropylmeth-yl)amino]-1,2,3,3a,9,9a-hexahydro-4H-cyclopenta[b]quinoline-4-carboxylate] and `O=C(O)CCC(=O)N(C1CC1)C1c2ccccc2N(C(=O)OCc2ccccc2)C2CCC21` (single isomer, unassigned) [27N, 3-(phenylmethyl) cis, cis-[(3-carboxy-1-oxopropyl)cyclopropylamino]-2,2a,8,8a-tetrahydrocyclobuta[b]quinoline-3(1H)-carboxylate] fall in the same range of Ki: 5.1 to 20 nM for the first, 5.1 to 20 nM for the second.

Compared with `CC1(C)C[C@@H]2[C@H](C1)N(C(=O)OCc1ccccc1)c1ccccc1[C@@H]2N(C(=O)CCC(=O)O)C1CC1` (racemic) [compound 19, 4-(Phenylmethyl)cis,cis-9-[(3-carboxy-1-oxopropyl)cyclopropylamino]-1,2,3,3a,9,9a-hexahydro-2,2-dimethyl-4H-cyclopenta[b]quinoline-4-carboxylate], `O=C(O)[C@H]1CCN1C(=O)N(C1CC1)C1c2ccccc2N(C(=O)OCc2ccccc2)C2CCCC21` (single isomer, unassigned) [compound 58] is lower in Ki: 201 to 7500 nM for the first, 20.1 to 200 nM for the second. The second binds more tightly here.

First: O=C(O)CCC(=O)N(C1CC1)[C@@H]1c2ccc(Cl)cc2N(C(=O)C2Cc3ccccc3C2)[C@@H]2CCC[C@@H]21 (single isomer, unassigned) [17DK, 4-[[cis,cis-6-chloro-4-[(2,3-dihydro-1H-inden-2-yl)carbonyl]-2,3,3a,4,9,9a-hexahydro-1H-cyclopenta[b]quinolin-9-yl]cyclopropylamino]-4-oxobutanoic acid]
Second: O=C(O)CCC(=O)N(C1CC1)[C@@H]1c2ccccc2N(CC(=O)Nc2ccc(F)cc2)[C@@H]2CCC[C@@H]21 (single isomer, unassigned) [compound 46, 4-[Cyclopropyl[cis,cis-4-[2-[(4-fluorophenyl)amino]-2-oxoethyl]-2,3,3a,4,9,9a-hexahydro-1H-cyclopenta[b]quinolin-9-yl]amino]-4-oxobutanoic acid]
The Ki of the first is lower: 5.1 to 20 nM for the first, 201 to 7500 nM for the second.

`O=C(CCC(=O)N(C1CC1)[C@H]1c2cc(F)ccc2N(C(=O)c2ccc(OC(F)(F)F)cc2)[C@H]2CCC[C@H]21)OC1OC(C(=O)O)C(O)C(O)C1O` (some centres unmarked) [compound 174] and `O=C(O)CCC(=O)N(C1CC1)[C@@H]1c2cc(F)ccc2N(C(=O)c2cccc(OC(F)(F)F)c2)[C@@H]2CC[C@@H]21` (single isomer, unassigned) [27F, 4-[cyclopropyl[cis, cis-6-fluoro-1,2,2a,3,8,8a-hexahydro-3-[3-(trifluoromethoxy)benzoyl]cyclobuta[b]quinolin-8-yl]amino]-4-oxobutanoic acid] fall in the same range of Ki: 201 to 7500 nM for the first, 201 to 7500 nM for the second.

Compared with `CC1(N(C(=O)CCC(=O)O)C2c3ccccc3N(C(=O)c3ccc(OC(F)(F)F)cc3)C3CCCC32)CC1` (racemic) [17AC, 4-[[cis,cis-2,3,3a,4,9,9a-hexahydro-4-[4-(trifluoromethoxy)benzoyl]-1H-cyclopenta[b]quinolin-9-yl](1-methylcyclopropyl)amino]-4-oxobutanoic acid], `[2H]C1(N(C(=O)OCC(=O)O)C2CC2)c2ccccc2N(C(=O)c2ccc(OC(F)(F)F)cc2)C2CCCC21` (single isomer, unassigned) [32U, deuterated-[[[cyclopropyl[cis, cis-2,3,3a,4,9,9a-hexahydro-4-[4-(trifluoromethoxy)benzoyl]-1H-cyclopenta[b]quinolin-9-yl-(d)]amino]carbonyl]oxy]acetic acid] is lower in Ki: 5.1 to 20 nM for the first, 1 to 5 nM for the second.

`O=C(O)COC(=O)N(C1CC1)[C@@H]1c2ccccc2N(C(=O)c2ccc(C(F)(F)F)cc2)[C@@H]2CCC[C@@H]21` (single isomer, unassigned) [32N, [[[cyclopropyl[cis, cis-2,3,3a,4,9,9a-hexahydro-4-[4-(trifluoromethyl)benzoyl]-1H-cyclopenta[b]quinolin-9-yl]amino]carbonyl]oxy]acetic acid] and `CCN(C(=O)CCC(=O)O)C1c2ccccc2N(C(=O)OCc2ccc(F)cc2)C2CCCC12` (single isomer, unassigned) [compound 71, 4-[(4-fluorophenyl)methyl] cis, cis-[(3-carboxy-1-oxopropyl)ethylamino]-1,2,3,3a,9,9a-hexahydro-4H-cyclopenta[b]quinoline-4-carboxylate] fall in the same range of Ki: 1 to 5 nM for the first, 1 to 5 nM for the second.
